The chains are these.
B1: unnamed (peptide)
chain: IPRDPSQQEL
B2: unnamed (peptide)
chain: LPSGFRKFL
B3: unnamed (peptide)
chain: QPEWLRAEV
B4: unnamed (peptide)
chain: KPVSVAISL
B5: unnamed (peptide)
chain: SPAVERLISSL
B6: unnamed (peptide)
chain: LPRTIFPTSTI
B7: unnamed (peptide)
chain: QPMASFARDLL
B8: unnamed (peptide)
chain: APASAAWRSVL
B9: unnamed (peptide)
chain: TPRTNNIEL
B10: unnamed (peptide)
chain: SPYGSDRLVQL
B11: unnamed (peptide)
chain: SPNLRLLDL
B12: unnamed (peptide)
chain: RPPNYSGTIAL
B13: unnamed (peptide)
chain: LPRIQSTAL
B14: unnamed (peptide)
chain: SPIGRDGKL
B15: unnamed (peptide)
chain: QPRFAPVLI
B16: unnamed (peptide)
chain: TPNDRFILL
B17: unnamed (peptide)
chain: APRWVLSQV
B18: unnamed (peptide)
chain: SPPLPFLSL
B19: unnamed (peptide)
chain: IPRPDGIEW
B20: unnamed (peptide)
chain: APRELGLGL
B21: unnamed (peptide)
chain: SPYPTKTQTM
B22: unnamed (peptide)
chain: APRVPVQAL
B23: unnamed (peptide)
chain: KPKDPLKISL
B24: unnamed (peptide)
chain: QPMDIHVEL
B25: unnamed (peptide)
chain: APSPRPLSL
B26: unnamed (peptide)
chain: AVDPNRAVPL
B27: unnamed (peptide)
chain: SPALGLRGL
B28: unnamed (peptide)
chain: SPSPINSSQAL
B29: unnamed (peptide)
chain: GPASSLTAL
B30: unnamed (peptide)
chain: RPTGGVGAV
B31: unnamed (peptide)
chain: NPRQINWTVL
B32: unnamed (peptide)
chain: SPRDPVLTL
B33: unnamed (peptide)
chain: APAVPALRL
B34: unnamed (peptide)
chain: APRDLVISI
B35: unnamed (peptide)
chain: RPHFSIIAI
B36: unnamed (peptide)
chain: HPRSPTPTLP
B37: unnamed (peptide)
chain: KPAGPPGILAL
B38: unnamed (peptide)
chain: APIGLKAVV
B39: unnamed (peptide)
chain: KPRSPVVEL
B40: unnamed (peptide)
chain: RPAGVGVVV
B41: unnamed (peptide)
chain: FPRPGGLL
B42: unnamed (peptide)
chain: VPRPPSLLA
B43: unnamed (peptide)
chain: APRPLQAGPA
B44: unnamed (peptide)
chain: RPQQIPVL
B45: unnamed (peptide)
chain: SPFHRNLFL
B46: unnamed (peptide)
chain: RVRDINEAF
B47: unnamed (peptide)
chain: SPRDSPAVSL
B48: unnamed (peptide)
chain: KPPVGTWLGL
B49: unnamed (peptide)
chain: SPDTAIRSGL
B50: unnamed (peptide)
chain: SPLPSPSAM
B51: unnamed (peptide)
chain: RPADSMLNVL
B52: unnamed (peptide)
chain: GPRTAALGLL
B53: unnamed (peptide)
chain: VPNQKELTEL
B54: unnamed (peptide)
chain: LPRAVGTQTL
B55: unnamed (peptide)
chain: APIGSRGPQL
B56: unnamed (peptide)
chain: RPSVPAALPL

The full ranking holds about 1,400 sequences; the median of “thermal melting temperature (Tm) of peptide-HLA complex” is about 60, and the lowest 2% start at about 45. Some of the results follow.
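Further: cell lysates heated 10 min at 37–73 °C, remaining pHLA pulled down with pan-class I antibody, peptides quantified by DIA-MS versus 37 °C, Tm where half the complex is lost.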

This experiment concerns the target HLA-B*07:02. Nature of the experiment: thermal melting temperature (Tm) of peptide-HLA complex; higher = more thermostable pHLA complex. The conditions noted are these: C1R-B*07:02.
With B1, the thermal melting temperature is 58.5 °C.

As for B2, the thermal melting temperature was 60.4 °C.

Regarding B3, the thermal melting temperature worked out at 59.2 °C.

On to B4, for which the thermal melting temperature was found to be 61.8 °C.

The sequence B5 gave a thermal melting temperature of 63.3 °C.

B6: the thermal melting temperature stood at 62.8 °C.

Take B7: the thermal melting temperature was 61.4 °C.

As to B8, the thermal melting temperature worked out at 63.1 °C.

Regarding B9, the thermal melting temperature is 58.2 °C.

Sequence B10 had a thermal melting temperature of 58.5 °C.

In turn, B11 returned a thermal melting temperature of 63.4 °C.

As to B12, the thermal melting temperature turned out to be 58.4 °C.

The sequence B13 yielded a thermal melting temperature of 64.2 °C.

Regarding B14, the thermal melting temperature worked out at 55.8 °C.

Regarding B15, the thermal melting temperature was 61.1 °C.

B16 registered a thermal melting temperature of 60.4 °C.

Regarding B17, the thermal melting temperature came out at 62.4 °C.

B18: the thermal melting temperature came out at 61.8 °C.

As for B19, the thermal melting temperature is 58.4 °C.

In turn, B20 had a thermal melting temperature of 62.5 °C.

B21 showed a thermal melting temperature of 54 °C.

B22 showed a thermal melting temperature of 66.6 °C.

As to B23, the thermal melting temperature was found to be 60.2 °C.

The sequence B24 registered a thermal melting temperature of 60.8 °C.

Consider B25, for which the thermal melting temperature amounted to 61.4 °C.

For the sequence B26, the thermal melting temperature was 60.5 °C.

The sequence B27 yielded a thermal melting temperature of 55.1 °C.

Regarding B28, the thermal melting temperature stood at 54.3 °C.

B29 displayed a thermal melting temperature of 56.6 °C.

Turning to B30, the thermal melting temperature came to 54.3 °C.

With B31, the thermal melting temperature came to 60.1 °C.

With B32, the thermal melting temperature is 64.4 °C.

As for B33, the thermal melting temperature is 62.7 °C.

For the sequence B34, the thermal melting temperature amounted to 63 °C.

Sequence B35 came in with a thermal melting temperature of 57.8 °C.

Consider B36, for which the thermal melting temperature was found to be 58 °C.

For B37, the thermal melting temperature stood at 62.3 °C.

B38 showed a thermal melting temperature of 62.1 °C.

B39 returned a thermal melting temperature of 61.3 °C.

Sequence B40 returned a thermal melting temperature of 56.4 °C.

The sequence B41 had a thermal melting temperature of 62.2 °C.

Consider B42, for which the thermal melting temperature is 60.1 °C.

As to B43, the thermal melting temperature was 47.3 °C.

B44: the thermal melting temperature was determined as 59.5 °C.

B45 displayed a thermal melting temperature of 60.1 °C.

B46 yielded a thermal melting temperature of 59.1 °C.

Sequence B47 had a thermal melting temperature of 58.9 °C.

For the sequence B48, the thermal melting temperature stood at 55.7 °C.

In turn, B49 showed a thermal melting temperature of 56.7 °C.

Consider B50, for which the thermal melting temperature came to 63.8 °C.

With B51, the thermal melting temperature amounted to 62 °C.

B52: the thermal melting temperature was found to be 60.6 °C.

B53 yielded a thermal melting temperature of 58 °C.

Regarding B54, the thermal melting temperature came out at 58.4 °C.

Consider B55, for which the thermal melting temperature worked out at 58.6 °C.

As to B56, the thermal melting temperature was 61.7 °C.

Values taken from the supplement of paper PMC7726561.
